From the supplement of paper PMC8728848
Some of the results follow.

What was measured:
Test in all cases: glycan array binding signal (z-score within array); higher = stronger binding
Settings in all cases: glycan notation: IUPAC condensed, linker removed
[1] = biological target: Fuc(a1-2)Gal6S(b1-3)GlcNAc
Method in brief: (§1)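 The binding signal is a Z-score computed within each array. Data were drawn from 3228 arrays in the Consortium for Functional Glycomics database, restricted to those with a known protein sequence. Scores were averaged over arrays of the same protein sequence at different concentrations or buffers, and over linkers, and negative values can be taken as non-binding.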

[2] = biological target: Fuc(a1-2)Gal6S(b1-3)GlcNAc6S
Method in brief: as §1

Fuc(a1-2)Gal6S(b1-4)Glc = biological target: Fuc(a1-2)Gal6S(b1-4)Glc
Method in brief: as §1

[3] = biological target: Fuc(a1-2)Gal6S(b1-4)Glc6S
Method in brief: as §1

Fuc(a1-2)[Gal(a1-3)]Gal = biological target: Fuc(a1-2)[Gal(a1-3)]Gal
Method in brief: as §1

[4] = biological target: Fuc(a1-2)[Gal(a1-3)]Gal(b1-3)GalNAc
Method in brief: as §1

[5] = biological target: Fuc(a1-2)[Gal(a1-3)]Gal(b1-3)GalNAc(b1-3)Gal(a1-4)Gal(b1-4)Glc
Method in brief: as §1

[6] = biological target: Fuc(a1-2)[Gal(a1-3)]Gal(b1-3)GlcNAc
Method in brief: as §1

[7] = biological target: Fuc(a1-2)[Gal(a1-3)]Gal(b1-3)GlcNAc(b1-2)Man(a1-3)[Fuc(a1-2)[Gal(a1-3)]Gal(b1-3)GlcNAc(b1-2)Man(a1-6)]Man(b1-4)GlcNAc(b1-4)GlcNAc
Method in brief: as §1

[8] = biological target: Fuc(a1-2)[Gal(a1-3)]Gal(b1-3)GlcNAc(b1-2)Man(a1-3)[Fuc(a1-2)[Gal(a1-3)]Gal(b1-3)GlcNAc(b1-2)Man(a1-6)]Man(b1-4)GlcNAc(b1-4)[Fuc(a1-6)]GlcNAc
Method in brief: as §1

[9] = biological target: Fuc(a1-2)[Gal(a1-3)]Gal(b1-3)GlcNAc(b1-3)GalNAc
Method in brief: as §1

[10] = biological target: Fuc(a1-2)[Gal(a1-3)]Gal(b1-3)GlcNAc(b1-6)GalNAc
Method in brief: as §1

[11] = biological target: Fuc(a1-2)[Gal(a1-3)]Gal(b1-4)Glc
Method in brief: as §1

[12] = biological target: Fuc(a1-2)[Gal(a1-3)]Gal(b1-4)GlcNAc
Method in brief: as §1

[13] = biological target: Fuc(a1-2)[Gal(a1-3)]Gal(b1-4)GlcNAc(b1-2)Man
Method in brief: as §1

[14] = biological target: Fuc(a1-2)[Gal(a1-3)]Gal(b1-4)GlcNAc(b1-2)Man(a1-3)[Fuc(a1-2)[Gal(a1-3)]Gal(b1-4)GlcNAc(b1-2)Man(a1-6)]Man(b1-4)GlcNAc(b1-4)GlcNAc
Method in brief: as §1

[15] = biological target: Fuc(a1-2)[Gal(a1-3)]Gal(b1-4)GlcNAc(b1-2)Man(a1-3)[Fuc(a1-2)[Gal(a1-3)]Gal(b1-4)GlcNAc(b1-2)Man(a1-6)]Man(b1-4)GlcNAc(b1-4)[Fuc(a1-6)]GlcNAc
Method in brief: as §1

[16] = biological target: Fuc(a1-2)[Gal(a1-3)]Gal(b1-4)GlcNAc(b1-3)GalNAc
Method in brief: as §1

[17] = biological target: Fuc(a1-2)[Gal(a1-3)]Gal(b1-4)GlcNAc(b1-3)[Fuc(a1-2)[Gal(a1-3)]Gal(b1-4)GlcNAc(b1-6)]GalNAc
Method in brief: as §1

[18] = biological target: Fuc(a1-2)[Gal(a1-3)]Gal(b1-4)GlcNAc(b1-6)GalNAc
Method in brief: as §1

[19] = biological target: Fuc(a1-2)[Gal(a1-3)]Gal(b1-4)[Fuc(a1-3)]Glc
Method in brief: as §1

[20] = biological target: Fuc(a1-2)[Gal(a1-3)]Gal(b1-4)[Fuc(a1-3)]GlcNAc
Method in brief: as §1

[21] = biological target: Fuc(a1-2)[Gal(a1-3)]Gal(b1-4)[Fuc(a1-3)]GlcNAc(b1-3)GalNAc
Method in brief: as §1

[22] = biological target: Fuc(a1-2)[Gal(a1-4)]Gal(b1-4)GlcNAc
Method in brief: as §1

[23] = biological target: Fuc(a1-2)[GalNAc(a1-3)]Gal
Method in brief: as §1

[24] = biological target: Fuc(a1-2)[GalNAc(a1-3)]Gal(b1-3)GalNAc(a1-3)[Fuc(a1-2)]Gal(b1-4)GlcNAc
Method in brief: as §1

[25] = biological target: Fuc(a1-2)[GalNAc(a1-3)]Gal(b1-3)GalNAc(b1-3)Gal(a1-4)Gal(b1-4)Glc
Method in brief: as §1

[26] = biological target: Fuc(a1-2)[GalNAc(a1-3)]Gal(b1-3)GlcNAc
Method in brief: as §1

[27] = biological target: Fuc(a1-2)[GalNAc(a1-3)]Gal(b1-3)GlcNAc(b1-2)Man(a1-3)[Fuc(a1-2)[GalNAc(a1-3)]Gal(b1-3)GlcNAc(b1-2)Man(a1-6)]Man(b1-4)GlcNAc(b1-4)GlcNAc
Method in brief: as §1

[28] = biological target: Fuc(a1-2)[GalNAc(a1-3)]Gal(b1-3)GlcNAc(b1-2)Man(a1-3)[Fuc(a1-2)[GalNAc(a1-3)]Gal(b1-3)GlcNAc(b1-2)Man(a1-6)]Man(b1-4)GlcNAc(b1-4)[Fuc(a1-6)]GlcNAc
Method in brief: as §1

[29] = biological target: Fuc(a1-2)[GalNAc(a1-3)]Gal(b1-3)GlcNAc(b1-3)GalNAc
Method in brief: as §1

[30] = biological target: Fuc(a1-2)[GalNAc(a1-3)]Gal(b1-3)GlcNAc(b1-6)GalNAc
Method in brief: as §1

[31] = biological target: Fuc(a1-2)[GalNAc(a1-3)]Gal(b1-4)Glc
Method in brief: as §1

[32] = biological target: Fuc(a1-2)[GalNAc(a1-3)]Gal(b1-4)GlcNAc
Method in brief: as §1

[33] = biological target: Fuc(a1-2)[GalNAc(a1-3)]Gal(b1-4)GlcNAc(b1-2)Man
Method in brief: as §1

[34] = biological target: Fuc(a1-2)[GalNAc(a1-3)]Gal(b1-4)GlcNAc(b1-2)Man(a1-3)[Fuc(a1-2)[GalNAc(a1-3)]Gal(b1-4)GlcNAc(b1-2)Man(a1-6)]Man(b1-4)GlcNAc(b1-4)GlcNAc
Method in brief: as §1

[35] = biological target: Fuc(a1-2)[GalNAc(a1-3)]Gal(b1-4)GlcNAc(b1-2)Man(a1-3)[Fuc(a1-2)[GalNAc(a1-3)]Gal(b1-4)GlcNAc(b1-2)Man(a1-6)]Man(b1-4)GlcNAc(b1-4)[Fuc(a1-6)]GlcNAc
Method in brief: as §1

[36] = biological target: Fuc(a1-2)[GalNAc(a1-3)]Gal(b1-4)GlcNAc(b1-3)Gal(b1-4)GlcNAc
Method in brief: as §1

[37] = biological target: Fuc(a1-2)[GalNAc(a1-3)]Gal(b1-4)GlcNAc(b1-3)Gal(b1-4)GlcNAc(b1-3)Gal(b1-4)GlcNAc
Method in brief: as §1

[38] = biological target: Fuc(a1-2)[GalNAc(a1-3)]Gal(b1-4)GlcNAc(b1-3)GalNAc
Method in brief: as §1

[39] = biological target: Fuc(a1-2)[GalNAc(a1-3)]Gal(b1-4)GlcNAc(b1-3)[Fuc(a1-2)[GalNAc(a1-3)]Gal(b1-4)GlcNAc(b1-6)]GalNAc
Method in brief: as §1

[40] = biological target: Fuc(a1-2)[GalNAc(a1-3)]Gal(b1-4)GlcNAc(b1-6)GalNAc
Method in brief: as §1

[41] = biological target: Fuc(a1-2)[GalNAc(a1-3)]Gal(b1-4)[Fuc(a1-3)]GlcNAc
Method in brief: as §1

[42] = biological target: Fuc(a1-2)[GalNAc(a1-3)]Gal(b1-4)[Fuc(a1-3)]GlcNAc(b1-3)GalNAc
Method in brief: as §1

[43] = biological target: Fuc(a1-2)[GalNAc(a1-4)]Gal(b1-4)GlcNAc
Method in brief: as §1

B1: AT1G15820(2) (Arabidopsis thaliana), Q9LMQ2 (protein)
chain: MAMAVSGAVLSGLGSSFLTGGKRGATALASGVGTGAQRVGRKTLIVAAAAAQPKKSWIPAVKGGGNFLDPEWLDGSLPGDFGFDPLGLGKDPAFLKWYREAELIHGRWAMAAVLGIFVGQAWSGVAWFEAGAQPDAIAPFSFGSLLGTQLLLMGWVESKRWVDFFNPDSQSVEWATPWSKTAENFANYTGDQGYPGGRFFDPLGLAGKNRDGVYEPDFEKLERLKLAEIKHSRLAMVAMLIFYFEAGQGKTPLGALGL
glycan array binding signal (z-score) [1]: -0.001
glycan array binding signal (z-score) [2]: -0.176
glycan array binding signal (z-score) (Fuc(a1-2)Gal6S(b1-4)Glc): -0.221
glycan array binding signal (z-score) [3]: 0.111
glycan array binding signal (z-score) (Fuc(a1-2)[Gal(a1-3)]Gal): 0.95
glycan array binding signal (z-score) [4]: -0.022
glycan array binding signal (z-score) [5]: -0.371
glycan array binding signal (z-score) [6]: -0.392
glycan array binding signal (z-score) [7]: 0.468
glycan array binding signal (z-score) [8]: -0.129
glycan array binding signal (z-score) [9]: -0.46
glycan array binding signal (z-score) [10]: -0.282
glycan array binding signal (z-score) [11]: 0.335
glycan array binding signal (z-score) [12]: 0.32
glycan array binding signal (z-score) [13]: -0.366
glycan array binding signal (z-score) [14]: 0.073
glycan array binding signal (z-score) [15]: -0.258
glycan array binding signal (z-score) [16]: -0.453
glycan array binding signal (z-score) [17]: 0.536
glycan array binding signal (z-score) [18]: -0.013
glycan array binding signal (z-score) [19]: -0.194
glycan array binding signal (z-score) [20]: 0.049
glycan array binding signal (z-score) [21]: -0.093
glycan array binding signal (z-score) [22]: 1.93
glycan array binding signal (z-score) [23]: -0.193
glycan array binding signal (z-score) [24]: -0.559
glycan array binding signal (z-score) [25]: -0.087
glycan array binding signal (z-score) [26]: -0.002
glycan array binding signal (z-score) [27]: -0.269
glycan array binding signal (z-score) [28]: -0.23
glycan array binding signal (z-score) [29]: -0.086
glycan array binding signal (z-score) [30]: -0.457
glycan array binding signal (z-score) [31]: -0.507
glycan array binding signal (z-score) [32]: -0.215
glycan array binding signal (z-score) [33]: -0.387
glycan array binding signal (z-score) [34]: -0.191
glycan array binding signal (z-score) [35]: 0.474
glycan array binding signal (z-score) [36]: 0.139
glycan array binding signal (z-score) [37]: -0.057
glycan array binding signal (z-score) [38]: -0.289
glycan array binding signal (z-score) [39]: 0.206
glycan array binding signal (z-score) [40]: -0.421
glycan array binding signal (z-score) [41]: -0.218
glycan array binding signal (z-score) [42]: 6.82
glycan array binding signal (z-score) [43]: -0.23
